From the supplement of paper PMC4166925
± gives the standard deviation of the averaged measurements. Whole data set: some 33,000 sequences, median “E-score (dimensionless, -0.5 to 0.5)” near -0.046, cut for the highest 2% near 0.36. The list shows a part of the results.

What follows are sequences tested on T1, SpTbr T-box DNA-binding domain (GST fusion) (assay: PBM E-score of 8-mer (E-score (dimensionless, -0.5 to 0.5)); Tbr is Tbrain of the sea star Patiria miniata (Pm) or the sea urchin Strongylocentrotus purpuratus (Sp); higher = stronger binding preference; most listed sequences are background and not binding sites). Settings: the construct has about 5 more residues each side.
T1 sequence: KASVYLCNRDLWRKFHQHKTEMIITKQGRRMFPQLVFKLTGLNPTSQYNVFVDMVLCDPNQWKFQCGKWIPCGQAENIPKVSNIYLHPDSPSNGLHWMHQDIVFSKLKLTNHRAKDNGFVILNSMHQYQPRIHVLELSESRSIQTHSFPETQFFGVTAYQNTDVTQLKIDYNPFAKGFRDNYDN
In short: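 Using the Universal PBM Analysis Suite, every ungapped 8-mer received an enrichment E-score averaged over duplicate arrays. Probe intensities came from double-stranded Universal Agilent oligonucleotide arrays incubated with 200 nM GST-fused Tbr T-box DNA-binding domain in PBS (pH 7.5). That protein was expressed in BL21 E. coli at 20 °C and purified by glutathione affinity chromatography.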
For AAAATGAA, the “PBM E-score of 8-mer” value was -0.117 ± 0.0059.
With GCGCATTA the “PBM E-score of 8-mer” value was -0.0563 ± 0.021.
AGATCTTA was tested, and the “PBM E-score of 8-mer” value was -0.217 ± 0.0091.
In the case of GTTACTCA, the “PBM E-score of 8-mer” value is reported as -0.0158 ± 0.021.
For CTTGCGCA, the “PBM E-score of 8-mer” value was 0.113 ± 0.01.
CCGACGGC was tested, and the “PBM E-score of 8-mer” value was -0.0278 ± 0.065.
For CGTGATGC, the “PBM E-score of 8-mer” value was 0.0423 ± 0.051.
In the case of CGGGATGC, the “PBM E-score of 8-mer” value is reported as -0.205 ± 0.019.
With CGTGTCAA the “PBM E-score of 8-mer” value was 0.4367 ± 0.0011.
CAGTCCCG was tested, and the “PBM E-score of 8-mer” value was -0.0798 ± 0.02.
For GCGATTAA, the “PBM E-score of 8-mer” value was 0.153 ± 0.073.
With AACTATAT the “PBM E-score of 8-mer” value was -0.0107 ± 0.13.
For AGTAGCTG, the “PBM E-score of 8-mer” value was -0.0208 ± 0.045.
For CGTGCTAG, the “PBM E-score of 8-mer” value was 0.141 ± 0.05.
For GAGGCGTA, the “PBM E-score of 8-mer” value was 0.121 ± 0.0013.
With ATCATCTG the “PBM E-score of 8-mer” value was -0.164 ± 0.031.
AAGATTTC was tested, and the “PBM E-score of 8-mer” value was -0.0323 ± 0.07.
With ACCATTTG the “PBM E-score of 8-mer” value was -0.106 ± 0.023.
With TCAGACCA the “PBM E-score of 8-mer” value was -0.0104 ± 0.016.
With GAACTAAA the “PBM E-score of 8-mer” value was -0.024 ± 0.011.
In the case of AGCTTGAA, the “PBM E-score of 8-mer” value is reported as -0.159 ± 0.078.
With CCTTATGA the “PBM E-score of 8-mer” value was 0.0906 ± 0.065.
With CCTTTCAG the “PBM E-score of 8-mer” value was -0.131 ± 0.026.
In the case of GGAGCGCA, the “PBM E-score of 8-mer” value is reported as -0.0559 ± 0.069.
For CAAGTTAC, the “PBM E-score of 8-mer” value was 0.0936 ± 0.015.
In the case of CGCTTCCA, the “PBM E-score of 8-mer” value is reported as 0.0706 ± 0.0021.
GTTTGGAA was tested, and the “PBM E-score of 8-mer” value was -0.13 ± 0.041.
With ATTTTACC the “PBM E-score of 8-mer” value was -0.203 ± 0.0053.
GGACAGAC was tested, and the “PBM E-score of 8-mer” value was -0.0879 ± 0.013.
CGCGACAC was tested, and the “PBM E-score of 8-mer” value was 0.35396 ± 0.00035.
For ATAGGCGG, the “PBM E-score of 8-mer” value was -0.0783 ± 0.012.
CGAGGAAG was tested, and the “PBM E-score of 8-mer” value was -0.0709 ± 0.015.
AGTGCGTA was tested, and the “PBM E-score of 8-mer” value was 0.0849 ± 0.013.
In the case of GAAGGATC, the “PBM E-score of 8-mer” value is reported as -0.0471 ± 0.023.
In the case of ACCACGTA, the “PBM E-score of 8-mer” value is reported as -0.00341 ± 0.0051.
With CGTGAGCA the “PBM E-score of 8-mer” value was 0.105 ± 0.039.
CAATACCG was tested, and the “PBM E-score of 8-mer” value was -0.201 ± 0.023.
In the case of ACTTCTCA, the “PBM E-score of 8-mer” value is reported as 0.118 ± 0.074.
GACAGTGC was tested, and the “PBM E-score of 8-mer” value was 0.152 ± 0.025.
In the case of AGCATGGG, the “PBM E-score of 8-mer” value is reported as -0.214 ± 0.024.
With GAATGAGA the “PBM E-score of 8-mer” value was -0.132 ± 0.063.
With AATGTGCA the “PBM E-score of 8-mer” value was 0.0581 ± 0.05.
In the case of TTGCGAAA, the “PBM E-score of 8-mer” value is reported as 0.33 ± 0.038.
In the case of AAGTTTCC, the “PBM E-score of 8-mer” value is reported as -0.00849 ± 0.04.
For AAGCAAGC, the “PBM E-score of 8-mer” value was -0.16651 ± 8.5e-05.
With GTAAATAC the “PBM E-score of 8-mer” value was -0.229 ± 0.044.
In the case of AGTGAGCG, the “PBM E-score of 8-mer” value is reported as 0.155 ± 0.072.
With GGAGTGCA the “PBM E-score of 8-mer” value was -0.153 ± 0.0039.
With GAAAAGTA the “PBM E-score of 8-mer” value was -0.0537 ± 0.086.
In the case of AGAGCTAG, the “PBM E-score of 8-mer” value is reported as -0.211 ± 0.02.
For CTAGAGGA, the “PBM E-score of 8-mer” value was -0.172 ± 0.0027.
For GTAGTCAC, the “PBM E-score of 8-mer” value was 0.135 ± 0.036.
In the case of ACTTCGAT, the “PBM E-score of 8-mer” value is reported as 0.0203 ± 0.036.
For CGCTACTC, the “PBM E-score of 8-mer” value was 0.17 ± 0.036.
With AAGGGGTG the “PBM E-score of 8-mer” value was 0.251 ± 0.024.
With GCCTGCAA the “PBM E-score of 8-mer” value was -0.0777 ± 0.016.
AGTGTAGC was tested, and the “PBM E-score of 8-mer” value was 0.129 ± 0.0052.
In the case of GATCTGCC, the “PBM E-score of 8-mer” value is reported as 0.0697 ± 0.024.
With AAAGAATC the “PBM E-score of 8-mer” value was 0.0635 ± 0.031.
CCGTTCCC was tested, and the “PBM E-score of 8-mer” value was 0.203 ± 0.018.
In the case of ACAGCAAT, the “PBM E-score of 8-mer” value is reported as 0.122 ± 0.11.
For GAGCAGCA, the “PBM E-score of 8-mer” value was -0.138 ± 0.11.
With ATACGATC the “PBM E-score of 8-mer” value was -0.105 ± 0.096.
In the case of CGATGAAC, the “PBM E-score of 8-mer” value is reported as -0.0642 ± 0.057.
In the case of ACAAGTGG, the “PBM E-score of 8-mer” value is reported as 0.355 ± 0.012.
For CCTCGCGA, the “PBM E-score of 8-mer” value was 0.306 ± 0.0057.
With AGGCGGTC the “PBM E-score of 8-mer” value was -0.0226 ± 0.069.
For ATCCGTAC, the “PBM E-score of 8-mer” value was -0.21 ± 0.02.
For ACATGCAA, the “PBM E-score of 8-mer” value was -0.103 ± 0.0033.
In the case of CTTAAACC, the “PBM E-score of 8-mer” value is reported as -0.14242 ± 4.9e-05.
For GACAATCA, the “PBM E-score of 8-mer” value was 0.00843 ± 0.089.
In the case of CACGTGGC, the “PBM E-score of 8-mer” value is reported as 0.212 ± 0.068.
CCTGTTTA was tested, and the “PBM E-score of 8-mer” value was -0.01 ± 0.077.
With CGAGTAAG the “PBM E-score of 8-mer” value was 0.0168 ± 0.044.
With GGACCACC the “PBM E-score of 8-mer” value was -0.0977 ± 0.022.
With GGCCCACA the “PBM E-score of 8-mer” value was -0.0786 ± 0.008.
With CTTCAAAC the “PBM E-score of 8-mer” value was 0.0597 ± 0.014.
For AGCTAGTA, the “PBM E-score of 8-mer” value was -0.194 ± 0.0013.
GCGATGAA was tested, and the “PBM E-score of 8-mer” value was 0.208 ± 0.0079.
In the case of AGTATTTA, the “PBM E-score of 8-mer” value is reported as 0.00333 ± 0.019.
In the case of AGCTAGCT, the “PBM E-score of 8-mer” value is reported as 0.0778 ± 0.066.
For AACACGGT, the “PBM E-score of 8-mer” value was 0.0832 ± 0.0046.
In the case of GAGGAGGC, the “PBM E-score of 8-mer” value is reported as -0.0211 ± 0.011.
CTGAAACA was tested, and the “PBM E-score of 8-mer” value was -0.166 ± 0.025.
In the case of ATGGTAGA, the “PBM E-score of 8-mer” value is reported as -0.116 ± 0.0076.
CTTTCTTC was tested, and the “PBM E-score of 8-mer” value was -0.11567 ± 4.2e-05.
